Results taken from the supplement of paper PMC11876631.
± gives the standard deviation of the averaged measurements. Laboratory Escherichia coli strains with one amino-acid change in an essential protein, pooled on minimal glucose agar with carbenicillin or gentamicin at twice the control MIC (plus kanamycin and chloramphenicol for the plasmids), 48 h. Fold change of barcode share against drug-free plates; higher = less susceptible. Active = above 20 in both replicates (the paper's putatively resistant). '<' = one read or none on drug, '>' = one read or none on a drug-free plate. Shares are relative, so most strains fall below 1 when a few take over. Listed are strains with at least 15 reads on both drug-free plates, and hits; most hits rest on fewer reference reads. Replicate rank correlation about 0.5. Edits are read from barcodes.

Molecular target: Escherichia coli (laboratory strain)
Assay: barcode share on antibiotic plates over drug-free plates; higher = less susceptible
Method: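 A pool of E. coli strains, each edited to carry one amino-acid change in an essential protein, was grown for 48 h on minimal glucose agar with or without antibiotic; strain barcodes were sequenced; mean of two replicates.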

[1] = antibiotic: carbenicillin, 2× MIC (3.1 µg/mL)
[2] = antibiotic: gentamicin, 2× MIC (MIC 0.45 µg/mL)

Protein | fold change of barcode share [1] | fold change of barcode share [2]
thiL V95D (protein) MACGEFSLIARYFDRVRSSRLDVELGIGDDCALLNIPEKQTLAISTDTLVAGNHFLPDIDPADLAYKALAVNLSDLAAMGADPAWLTLALTLPDDDEAWLESFSDSLFDLLNYYDMQLIGGDTTRGPLSMTLGIHGFVPMGRALTRSGAKPGDWIYVTGTPGDSAAGLAILQNRLQVADAKDADYLIKRHLRPSPRILQGQALRDLANSAIDLSDGLISDLGHIVKASDCGARIDLALLPFSDALSRHVEPEQALRWALSGGEDYELCFTVPELNRGALDVALGHLGVPFTCIGQMTADIEGLCFIRDGEPVTLDWKGYDHFATP | 0.881 ± 0.091 | 0.0126 ± 0.0053
thiL V95P (protein) MACGEFSLIARYFDRVRSSRLDVELGIGDDCALLNIPEKQTLAISTDTLVAGNHFLPDIDPADLAYKALAVNLSDLAAMGADPAWLTLALTLPDPDEAWLESFSDSLFDLLNYYDMQLIGGDTTRGPLSMTLGIHGFVPMGRALTRSGAKPGDWIYVTGTPGDSAAGLAILQNRLQVADAKDADYLIKRHLRPSPRILQGQALRDLANSAIDLSDGLISDLGHIVKASDCGARIDLALLPFSDALSRHVEPEQALRWALSGGEDYELCFTVPELNRGALDVALGHLGVPFTCIGQMTADIEGLCFIRDGEPVTLDWKGYDHFATP | 0.581 ± 0.037 | 0.0169 ± 0.0013
thiL F103W (protein) MACGEFSLIARYFDRVRSSRLDVELGIGDDCALLNIPEKQTLAISTDTLVAGNHFLPDIDPADLAYKALAVNLSDLAAMGADPAWLTLALTLPDVDEAWLESWSDSLFDLLNYYDMQLIGGDTTRGPLSMTLGIHGFVPMGRALTRSGAKPGDWIYVTGTPGDSAAGLAILQNRLQVADAKDADYLIKRHLRPSPRILQGQALRDLANSAIDLSDGLISDLGHIVKASDCGARIDLALLPFSDALSRHVEPEQALRWALSGGEDYELCFTVPELNRGALDVALGHLGVPFTCIGQMTADIEGLCFIRDGEPVTLDWKGYDHFATP | 0.286 ± 0.16 | < 0.0159
thiL F137A (protein) MACGEFSLIARYFDRVRSSRLDVELGIGDDCALLNIPEKQTLAISTDTLVAGNHFLPDIDPADLAYKALAVNLSDLAAMGADPAWLTLALTLPDVDEAWLESFSDSLFDLLNYYDMQLIGGDTTRGPLSMTLGIHGAVPMGRALTRSGAKPGDWIYVTGTPGDSAAGLAILQNRLQVADAKDADYLIKRHLRPSPRILQGQALRDLANSAIDLSDGLISDLGHIVKASDCGARIDLALLPFSDALSRHVEPEQALRWALSGGEDYELCFTVPELNRGALDVALGHLGVPFTCIGQMTADIEGLCFIRDGEPVTLDWKGYDHFATP | 1.76 ± 0.49 | < 0.00311
thiL F137W (protein) MACGEFSLIARYFDRVRSSRLDVELGIGDDCALLNIPEKQTLAISTDTLVAGNHFLPDIDPADLAYKALAVNLSDLAAMGADPAWLTLALTLPDVDEAWLESFSDSLFDLLNYYDMQLIGGDTTRGPLSMTLGIHGWVPMGRALTRSGAKPGDWIYVTGTPGDSAAGLAILQNRLQVADAKDADYLIKRHLRPSPRILQGQALRDLANSAIDLSDGLISDLGHIVKASDCGARIDLALLPFSDALSRHVEPEQALRWALSGGEDYELCFTVPELNRGALDVALGHLGVPFTCIGQMTADIEGLCFIRDGEPVTLDWKGYDHFATP | 0.298 ± 0.12 | 0.0118 ± 0.0096
thiL F137Q (protein) MACGEFSLIARYFDRVRSSRLDVELGIGDDCALLNIPEKQTLAISTDTLVAGNHFLPDIDPADLAYKALAVNLSDLAAMGADPAWLTLALTLPDVDEAWLESFSDSLFDLLNYYDMQLIGGDTTRGPLSMTLGIHGQVPMGRALTRSGAKPGDWIYVTGTPGDSAAGLAILQNRLQVADAKDADYLIKRHLRPSPRILQGQALRDLANSAIDLSDGLISDLGHIVKASDCGARIDLALLPFSDALSRHVEPEQALRWALSGGEDYELCFTVPELNRGALDVALGHLGVPFTCIGQMTADIEGLCFIRDGEPVTLDWKGYDHFATP | 0.266 ± 0.043 | 0.0122 ± 0.013
thiL F137P (protein) MACGEFSLIARYFDRVRSSRLDVELGIGDDCALLNIPEKQTLAISTDTLVAGNHFLPDIDPADLAYKALAVNLSDLAAMGADPAWLTLALTLPDVDEAWLESFSDSLFDLLNYYDMQLIGGDTTRGPLSMTLGIHGPVPMGRALTRSGAKPGDWIYVTGTPGDSAAGLAILQNRLQVADAKDADYLIKRHLRPSPRILQGQALRDLANSAIDLSDGLISDLGHIVKASDCGARIDLALLPFSDALSRHVEPEQALRWALSGGEDYELCFTVPELNRGALDVALGHLGVPFTCIGQMTADIEGLCFIRDGEPVTLDWKGYDHFATP | 0.461 ± 0.046 | < 0.00405
thiL V138A (protein) MACGEFSLIARYFDRVRSSRLDVELGIGDDCALLNIPEKQTLAISTDTLVAGNHFLPDIDPADLAYKALAVNLSDLAAMGADPAWLTLALTLPDVDEAWLESFSDSLFDLLNYYDMQLIGGDTTRGPLSMTLGIHGFAPMGRALTRSGAKPGDWIYVTGTPGDSAAGLAILQNRLQVADAKDADYLIKRHLRPSPRILQGQALRDLANSAIDLSDGLISDLGHIVKASDCGARIDLALLPFSDALSRHVEPEQALRWALSGGEDYELCFTVPELNRGALDVALGHLGVPFTCIGQMTADIEGLCFIRDGEPVTLDWKGYDHFATP | 0.449 ± 0.3 | 0.0059 ± 0.004
thiL V138Q (protein) MACGEFSLIARYFDRVRSSRLDVELGIGDDCALLNIPEKQTLAISTDTLVAGNHFLPDIDPADLAYKALAVNLSDLAAMGADPAWLTLALTLPDVDEAWLESFSDSLFDLLNYYDMQLIGGDTTRGPLSMTLGIHGFQPMGRALTRSGAKPGDWIYVTGTPGDSAAGLAILQNRLQVADAKDADYLIKRHLRPSPRILQGQALRDLANSAIDLSDGLISDLGHIVKASDCGARIDLALLPFSDALSRHVEPEQALRWALSGGEDYELCFTVPELNRGALDVALGHLGVPFTCIGQMTADIEGLCFIRDGEPVTLDWKGYDHFATP | 0.282 ± 0.19 | < 0.00883
accD V121D (protein) MSWIERIKSNITPTRKASIPEGVWTKCDSCGQVLYRAELERNLEVCPKCDHHMRMTARNRLHSLLDEGSLVELGSELEPKDVLKFRDSKKYKDRLASAQKETGEKDALVVMKGTLYGMPVDAAAFEFAFMGGSMGSVVGARFVRAVEQALEDNCPLICFSASGGARMQEALMSLMQMAKTSAALAKMQERGLPYISVLTDPTMGGVSASFAMLGDLNIAEPKALIGFAGPRVIEQTVREKLPPGFQRSEFLIEKGAIDMIVRRPEMRLKLASILAKLMNLPAPNPEAPREGVVVPPVPDQEPEA | 0.546 ± 0.18 | < 0.00758
can V81A (protein) MKDIDTLISNNALWSKMLVEEDPGFFEKLAQAQKPRFLWIGCSDSRVPAERLTGLEPGELFVHRNVANLVIHTDLNCLSVAQYAVDVLEVEHIIICGHYGCGGVQAAVENPELGLINNWLLHIRDIWFKHSSLLGEMPQERRLDTLCELNVMEQVYNLGHSTIMQSAWKRGQKVTIHGWAYGIHDGLLRDLDVTATNRETLEQRYRHGISNLKLKHANHK | 0.272 ± 0.02 | 0.00395 ± 0.0026
thrS L78A (protein) MPVITLPDGSQRHYDHAVSPMDVALDIGPGLAKACIAGRVNGELVDACDLIENDAQLSIITAKDEEGLEIIRHSCAHALGHAIKQLWPHTKMAIGPVIDNGFYYDVDLDRTLTQEDVEALEKRMHELAEKNYDVIKKKVSWHEARETFANRGESYKVSILDENIAHDDKPGLYFHEEYVDMCRGPHVPNMRFCHHFKLMKTAGAYWRGDSNNKMLQRIYGTAWADKKALNAYLQRLEEAAKRDHRKIGKQLDLYHMQEEAPGMVFWHNDGWTIFRELEVFVRSKLKEYQYQEVKGPFMMDRVLWEKTGHWDNYKDAMFTTSSENREYCIKPMNCPGHVQIFNQGLKSYRDLPLRMAEFGSCHRNEPSGSLHGLMRVRGFTQDDAHIFCTEEQIRDEVNGCIRLVYDMYSTFGFEKIVVKLSTRPEKRIGSDEMWDRAEADLAVALEENNIPFEYQLGEGAFYGPKIEFTLYDCLDRAWQCGTVQLDFSLPSRLSASYVGEDNERKVPVMIHRAILGSMERFIGILTEEFAGFFPTWLAPVQVVIMNITDSQSEYVNELTQKLSNAGIRVKADLRNEKIGFKIREHTLRRVPYMLVCGDKEVESGKVAVRTRRGKDLGSMDVNEVIEKLQQEIRSRSLKQLEE | 0.343 ± 0.038 | 0.0131 ± 0.013
thrS L79A (protein) MPVITLPDGSQRHYDHAVSPMDVALDIGPGLAKACIAGRVNGELVDACDLIENDAQLSIITAKDEEGLEIIRHSCAHLAGHAIKQLWPHTKMAIGPVIDNGFYYDVDLDRTLTQEDVEALEKRMHELAEKNYDVIKKKVSWHEARETFANRGESYKVSILDENIAHDDKPGLYFHEEYVDMCRGPHVPNMRFCHHFKLMKTAGAYWRGDSNNKMLQRIYGTAWADKKALNAYLQRLEEAAKRDHRKIGKQLDLYHMQEEAPGMVFWHNDGWTIFRELEVFVRSKLKEYQYQEVKGPFMMDRVLWEKTGHWDNYKDAMFTTSSENREYCIKPMNCPGHVQIFNQGLKSYRDLPLRMAEFGSCHRNEPSGSLHGLMRVRGFTQDDAHIFCTEEQIRDEVNGCIRLVYDMYSTFGFEKIVVKLSTRPEKRIGSDEMWDRAEADLAVALEENNIPFEYQLGEGAFYGPKIEFTLYDCLDRAWQCGTVQLDFSLPSRLSASYVGEDNERKVPVMIHRAILGSMERFIGILTEEFAGFFPTWLAPVQVVIMNITDSQSEYVNELTQKLSNAGIRVKADLRNEKIGFKIREHTLRRVPYMLVCGDKEVESGKVAVRTRRGKDLGSMDVNEVIEKLQQEIRSRSLKQLEE | 0.348 ± 0.028 | 0.00602 ± 0.0039
